In publication PMC12820563:
This is one part of the list. The list includes weakly bound sequences.

Each sequence was assayed against T1, MBP-FoxP3dN (UniProt Q99JB6) (assay: PD-seq (MBP pull-down with sequencing)). Settings: 20 mM Tris-HCl pH 7.5, 100 mM NaCl, 1.5 mM MgCl2, 0.4 uM protein, 0.1 uM dsDNA library, 30 min, room temperature, amylose pull-down; high values mean tight binding; double strand, one strand shown.
T1 sequence: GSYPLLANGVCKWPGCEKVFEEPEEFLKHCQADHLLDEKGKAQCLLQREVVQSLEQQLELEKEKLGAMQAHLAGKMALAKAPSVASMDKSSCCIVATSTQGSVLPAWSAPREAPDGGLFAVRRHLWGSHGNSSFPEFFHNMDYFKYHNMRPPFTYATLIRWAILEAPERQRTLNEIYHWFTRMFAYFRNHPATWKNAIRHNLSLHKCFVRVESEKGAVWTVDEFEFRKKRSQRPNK
With “GATGATTGTTCTCCCAGCTGATGAATTACGGCGTTCGAGTAAACAAATTTTCCTAATCTTTCTGTTCAAGCGCCATCTAC” the binding signal (RPM ratio (pull-down/input)) was 1.34. Sequence “GATGATTGTTCTCCCAGCTGATGAATTCGAGTACTCGAGTAAACAAATTTTCCTAATCTTTCTGTTCAAGCGCCATCTAC” has a binding signal (RPM ratio (pull-down/input)) of 0.707. With “GATGATTGTTCTCCCAGCTGATGAATTTATCAATTCGAGTAAACAAATTTTCCTAATCTTTCTGTTCAAGCGCCATCTAC” the binding signal (RPM ratio (pull-down/input)) was 0.676. Sequence “GATGATTGTTCTCCCAGCTGATGAATTGGTTTCCTCGAGTAAACAAATTTTCCTAATCTTTCTGTTCAAGCGCCATCTAC” has a binding signal (RPM ratio (pull-down/input)) of 1.54. “GATGATTGTTCTCCCAGCTGATGAATTCTGTAAATCGAGTAAACAAATTTTCCTAATCTTTCTGTTCAAGCGCCATCTAC” showed a binding signal (RPM ratio (pull-down/input)) of 0.538. “GATGATTGTTCTCCCAGCTGATGAATTCTTCAAGTCGAGTAAACAAATTTTCCTAATCTTTCTGTTCAAGCGCCATCTAC” was tested, and the binding signal (RPM ratio (pull-down/input)) was 0.196. For “GATGATTGTTCTCCCAGCTGATGAATTTCCATTGTCGAGTAAACAAATTTTCCTAATCTTTCTGTTCAAGCGCCATCTAC”, the binding signal (RPM ratio (pull-down/input)) was 0.436. “GATGATTGTTCTCCCAGCTGATGAATTTAGACAATCGAGTAAACAAATTTTCCTAATCTTTCTGTTCAAGCGCCATCTAC” gave a binding signal (RPM ratio (pull-down/input)) of 0.862. In the case of “GATGATTGTTCTCCCAGCTGATGAATTCTGTGCATCGAGTAAACAAATTTTCCTAATCTTTCTGTTCAAGCGCCATCTAC”, the binding signal (RPM ratio (pull-down/input)) is reported as 1.52. “GATGATTGTTCTCCCAGCTGATGAATTCCCTGAGTCGAGTAAACAAATTTTCCTAATCTTTCTGTTCAAGCGCCATCTAC” showed a binding signal (RPM ratio (pull-down/input)) of 0.19. For “GATGATTGTTCTCCCAGCTGATGAATTTGGCATCTCGAGTAAACAAATTTTCCTAATCTTTCTGTTCAAGCGCCATCTAC”, the binding signal (RPM ratio (pull-down/input)) was 6.36. Sequence “GATGATTGTTCTCCCAGCTGATGAATTGCATATTTCGAGTAAACAAATTTTCCTAATCTTTCTGTTCAAGCGCCATCTAC” has a binding signal (RPM ratio (pull-down/input)) of 1.3. Work on “GATGATTGTTCTCCCAGCTGATGAATTGCAGTCCTCGAGTAAACAAATTTTCCTAATCTTTCTGTTCAAGCGCCATCTAC” yielded a binding signal (RPM ratio (pull-down/input)) of 0.703. For “GATGATTGTTCTCCCAGCTGATGAATTAGCTCTTTCGAGTAAACAAATTTTCCTAATCTTTCTGTTCAAGCGCCATCTAC”, the binding signal (RPM ratio (pull-down/input)) was 0.301. “GATGATTGTTCTCCCAGCTGATGAATTAGGTCCCTCGAGTAAACAAATTTTCCTAATCTTTCTGTTCAAGCGCCATCTAC” was tested, and the binding signal (RPM ratio (pull-down/input)) was 0.377. For “GATGATTGTTCTCCCAGCTGATGAATTGATCGGATCGAGTAAACAAATTTTCCTAATCTTTCTGTTCAAGCGCCATCTAC”, the binding signal (RPM ratio (pull-down/input)) was 0.215. “GATGATTGTTCTCCCAGCTGATGAATTTCCGTTTTCGAGTAAACAAATTTTCCTAATCTTTCTGTTCAAGCGCCATCTAC” was tested, and the binding signal (RPM ratio (pull-down/input)) was 0.438. Work on “GATGATTGTTCTCCCAGCTGATGAATTTGGGACATCGAGTAAACAAATTTTCCTAATCTTTCTGTTCAAGCGCCATCTAC” yielded a binding signal (RPM ratio (pull-down/input)) of 0.516. For “GATGATTGTTCTCCCAGCTGATGAATTAACTTGTTCGAGTAAACAAATTTTCCTAATCTTTCTGTTCAAGCGCCATCTAC”, the binding signal (RPM ratio (pull-down/input)) was 0.888. “GATGATTGTTCTCCCAGCTGATGAATTGAAAGCATCGAGTAAACAAATTTTCCTAATCTTTCTGTTCAAGCGCCATCTAC” gave a binding signal (RPM ratio (pull-down/input)) of 0.812. Work on “GATGATTGTTCTCCCAGCTGATGAATTCGCTTGATCGAGTAAACAAATTTTCCTAATCTTTCTGTTCAAGCGCCATCTAC” yielded a binding signal (RPM ratio (pull-down/input)) of 0.676. “GATGATTGTTCTCCCAGCTGATGAATTGTGTCTTTCGAGTAAACAAATTTTCCTAATCTTTCTGTTCAAGCGCCATCTAC” gave a binding signal (RPM ratio (pull-down/input)) of 2.09. In the case of “GATGATTGTTCTCCCAGCTGATGAATTCAAAAACTCGAGTAAACAAATTTTCCTAATCTTTCTGTTCAAGCGCCATCTAC”, the binding signal (RPM ratio (pull-down/input)) is reported as 0.241. In the case of “GATGATTGTTCTCCCAGCTGATGAATTGGGTACGTCGAGTAAACAAATTTTCCTAATCTTTCTGTTCAAGCGCCATCTAC”, the binding signal (RPM ratio (pull-down/input)) is reported as 0.441. Sequence “GATGATTGTTCTCCCAGCTGATGAATTATGTGGTTCGAGTAAACAAATTTTCCTAATCTTTCTGTTCAAGCGCCATCTAC” has a binding signal (RPM ratio (pull-down/input)) of 3.12. Work on “GATGATTGTTCTCCCAGCTGATGAATTGGGTTCTTCGAGTAAACAAATTTTCCTAATCTTTCTGTTCAAGCGCCATCTAC” yielded a binding signal (RPM ratio (pull-down/input)) of 0.562. “GATGATTGTTCTCCCAGCTGATGAATTTACTCTGTCGAGTAAACAAATTTTCCTAATCTTTCTGTTCAAGCGCCATCTAC” gave a binding signal (RPM ratio (pull-down/input)) of 0.348. Work on “GATGATTGTTCTCCCAGCTGATGAATTAGTAGCATCGAGTAAACAAATTTTCCTAATCTTTCTGTTCAAGCGCCATCTAC” yielded a binding signal (RPM ratio (pull-down/input)) of 1.94. Sequence “GATGATTGTTCTCCCAGCTGATGAATTACAGGAATCGAGTAAACAAATTTTCCTAATCTTTCTGTTCAAGCGCCATCTAC” has a binding signal (RPM ratio (pull-down/input)) of 0.247. “GATGATTGTTCTCCCAGCTGATGAATTAAGACAATCGAGTAAACAAATTTTCCTAATCTTTCTGTTCAAGCGCCATCTAC” showed a binding signal (RPM ratio (pull-down/input)) of 0.487. “GATGATTGTTCTCCCAGCTGATGAATTGGAGTGTTCGAGTAAACAAATTTTCCTAATCTTTCTGTTCAAGCGCCATCTAC” showed a binding signal (RPM ratio (pull-down/input)) of 0.671. In the case of “GATGATTGTTCTCCCAGCTGATGAATTTTGCAAATCGAGTAAACAAATTTTCCTAATCTTTCTGTTCAAGCGCCATCTAC”, the binding signal (RPM ratio (pull-down/input)) is reported as 0.874. Work on “GATGATTGTTCTCCCAGCTGATGAATTACGTCGGTCGAGTAAACAAATTTTCCTAATCTTTCTGTTCAAGCGCCATCTAC” yielded a binding signal (RPM ratio (pull-down/input)) of 0.369. Work on “GATGATTGTTCTCCCAGCTGATGAATTGTCCCGTTCGAGTAAACAAATTTTCCTAATCTTTCTGTTCAAGCGCCATCTAC” yielded a binding signal (RPM ratio (pull-down/input)) of 0.367. With “GATGATTGTTCTCCCAGCTGATGAATTTGTTTTATCGAGTAAACAAATTTTCCTAATCTTTCTGTTCAAGCGCCATCTAC” the binding signal (RPM ratio (pull-down/input)) was 6.46. “GATGATTGTTCTCCCAGCTGATGAATTACTTAAGTCGAGTAAACAAATTTTCCTAATCTTTCTGTTCAAGCGCCATCTAC” gave a binding signal (RPM ratio (pull-down/input)) of 0.246. “GATGATTGTTCTCCCAGCTGATGAATTTTCGCCGTCGAGTAAACAAATTTTCCTAATCTTTCTGTTCAAGCGCCATCTAC” gave a binding signal (RPM ratio (pull-down/input)) of 0.57. Work on “GATGATTGTTCTCCCAGCTGATGAATTGGCAACATCGAGTAAACAAATTTTCCTAATCTTTCTGTTCAAGCGCCATCTAC” yielded a binding signal (RPM ratio (pull-down/input)) of 2.38. “GATGATTGTTCTCCCAGCTGATGAATTGGATAAATCGAGTAAACAAATTTTCCTAATCTTTCTGTTCAAGCGCCATCTAC” gave a binding signal (RPM ratio (pull-down/input)) of 0.23. For “GATGATTGTTCTCCCAGCTGATGAATTTCTAAAGTCGAGTAAACAAATTTTCCTAATCTTTCTGTTCAAGCGCCATCTAC”, the binding signal (RPM ratio (pull-down/input)) was 0.185.
